# In the supplement of paper PMC3334620:
# Whole data set: some 33,000 sequences, median “E-score (-0.5 to 0.5)” near -0.053, cut for the highest 2% near 0.37. This is one part of the list.
# Target: Hap1 (UniProt P0CE41)
# Test: PBM E-score (8-mer binding enrichment) (E-score (-0.5 to 0.5)); higher = stronger / more preferred TF binding; most listed sequences are background and not binding sites
# Settings: protein concentration: 200 nM; construct: GST-DNA-binding domain
# Method in brief: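 E-scores (a modified Wilcoxon-Mann-Whitney statistic) were assigned by the Universal PBM Analysis Suite to every ungapped eight-base word pooled with its reverse complement. The input came from universal all-10-mer Agilent arrays made double-stranded by primer extension and probed with GST-tagged yeast transcription factors at about 100-200 nM. Fluorescent anti-GST detected bound protein, and masliner normalised the scans.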
# Chain of UniProt P0CE41 (P0CE41 whole entry): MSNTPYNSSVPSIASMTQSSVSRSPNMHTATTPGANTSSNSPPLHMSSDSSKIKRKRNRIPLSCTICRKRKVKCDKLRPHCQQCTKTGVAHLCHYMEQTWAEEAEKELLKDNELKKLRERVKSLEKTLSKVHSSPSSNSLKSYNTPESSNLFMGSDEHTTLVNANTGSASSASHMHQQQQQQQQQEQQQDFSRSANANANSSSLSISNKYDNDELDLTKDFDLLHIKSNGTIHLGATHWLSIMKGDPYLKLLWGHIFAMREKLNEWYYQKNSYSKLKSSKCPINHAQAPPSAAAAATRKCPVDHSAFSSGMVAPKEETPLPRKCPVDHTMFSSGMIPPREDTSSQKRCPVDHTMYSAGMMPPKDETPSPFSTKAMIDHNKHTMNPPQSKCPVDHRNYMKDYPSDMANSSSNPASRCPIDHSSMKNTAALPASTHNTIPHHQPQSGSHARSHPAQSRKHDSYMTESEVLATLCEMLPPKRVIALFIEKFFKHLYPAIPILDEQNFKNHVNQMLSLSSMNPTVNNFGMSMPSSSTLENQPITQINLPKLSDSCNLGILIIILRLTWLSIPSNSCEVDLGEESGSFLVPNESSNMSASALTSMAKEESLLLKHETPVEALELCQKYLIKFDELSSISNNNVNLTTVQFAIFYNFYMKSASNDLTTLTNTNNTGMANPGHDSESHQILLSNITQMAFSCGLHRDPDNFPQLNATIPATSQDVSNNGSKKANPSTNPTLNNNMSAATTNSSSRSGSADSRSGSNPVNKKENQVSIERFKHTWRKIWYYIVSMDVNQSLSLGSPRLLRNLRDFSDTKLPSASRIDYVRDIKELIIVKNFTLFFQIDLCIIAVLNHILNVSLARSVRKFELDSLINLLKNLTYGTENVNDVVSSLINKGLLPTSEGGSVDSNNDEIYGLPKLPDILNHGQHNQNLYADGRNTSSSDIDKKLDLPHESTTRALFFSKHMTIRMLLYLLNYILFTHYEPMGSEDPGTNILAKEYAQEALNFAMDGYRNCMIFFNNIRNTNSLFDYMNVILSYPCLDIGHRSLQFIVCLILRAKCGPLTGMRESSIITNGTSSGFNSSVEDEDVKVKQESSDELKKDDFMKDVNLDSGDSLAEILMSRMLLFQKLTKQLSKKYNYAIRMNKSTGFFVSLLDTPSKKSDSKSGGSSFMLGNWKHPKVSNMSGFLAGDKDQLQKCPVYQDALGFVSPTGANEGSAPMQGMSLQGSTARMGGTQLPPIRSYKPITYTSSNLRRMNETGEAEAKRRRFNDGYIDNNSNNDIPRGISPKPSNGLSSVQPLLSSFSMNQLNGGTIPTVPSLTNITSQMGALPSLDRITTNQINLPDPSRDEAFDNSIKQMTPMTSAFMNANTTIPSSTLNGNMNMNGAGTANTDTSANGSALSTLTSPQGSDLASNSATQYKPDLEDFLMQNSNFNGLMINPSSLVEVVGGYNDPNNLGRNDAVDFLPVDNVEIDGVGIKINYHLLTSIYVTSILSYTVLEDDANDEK
row,Sequence,PBM E-score
1,CGTGTTTA,0.038
2,CGCTTTAC,0.0374
3,GCCAAGGA,-0.207
4,AACGGGGA,0.169
5,GCCTGCGA,-0.234
6,GCAATTGA,0.0449
7,TCATCCAA,-0.0815
8,AATGAACT,0.0548
9,GCGGGAGA,0.207
10,CTGTTAGC,0.00169
11,TACCCCGA,0.398
12,GTACAAAA,-0.147
13,ACTCAAGG,-0.0313
14,ATTTCACC,-0.0306
15,CAACGTTC,0.0138
16,AGGTTGGA,0.0245
17,CTTTCCTA,-0.249
18,ATCGTGTG,-0.0878
19,CTGTTGAA,-0.107
20,ATTTTGGC,-0.123
21,ACTTTAAC,-0.153
22,ACTGGTTA,-0.141

row,Sequence,PBM E-score
1,ACAGGCCA,-0.0966
2,ATATCCCA,0.145
3,CAGTTGTA,-0.0413
4,CGTCAATC,-0.00119
5,AGAAGTAG,-0.204
6,TCAGTCAA,-0.168
7,GATTGCGC,0.0765
8,CAGGGCGC,0.026
9,CGCGGAAC,0.27
10,GGCGACAA,0.142
11,ACAGCCAA,-0.216
12,ACAAGGGC,-0.112
13,CCCTAAGG,-0.179
14,AGTGTAAG,-0.264
15,AGCGGAGA,0.276
16,GTCGGATA,0.339
17,ACTATATC,-0.0639
18,CATAGCTA,-0.226
19,ATGGAGAG,-0.166
20,CGAGGCCA,0.022
21,GGGGACCC,-0.043
22,AGGCGACG,-0.05

row,Sequence,PBM E-score
1,AATCTCCT,0.0543
2,CCCGTGAC,0.103
3,AACCATCA,-0.0631
4,ATTCATAC,0.0162
5,GATTTTAA,0.182
6,ACAACAGG,-0.124
7,CTAAAAAA,0.0875
8,ATGAGTGC,-0.142
9,ATGCAAAT,-0.114
10,AAAATCAG,-0.167
11,CAAGGTAA,-0.0636
12,ATGGATTG,-0.109
13,CTTATCAA,-0.101
14,CTCTTATC,0.18
15,GCTCTACA,-0.124
16,AGTACTAC,-0.193
17,AGAGAAGC,-0.169
18,GGCTGGCA,-0.143
19,CTGGTGTA,-0.214
20,CCATCTCG,0.171
21,ACGATTGG,-0.123
22,AGCGGTTA,0.0174

row,Sequence,PBM E-score
1,AGGGAGCG,-0.231
2,ATGCCTTC,-0.32
3,ATATTCAT,-0.222
4,CATACCGG,0.355
5,ACCGTCTC,0.0202
6,CCGTTGAC,0.112
7,AAAGATCA,-0.151
8,ATCAAGGA,-0.163
9,ACCGACCA,0.0766
10,ACACCTAC,-0.104
11,ATGTAAAA,-0.185
12,CCTTTCCC,0.252
13,GCTTCGCA,-0.13
14,AACAGGGG,-0.247
15,ATACGATG,0.0413
16,AGGGCAAG,-0.0376
17,GAGCGAGC,0.0204
18,ACGTATGG,-0.0559
19,ACTTCAAG,-0.27
20,ACTGTCTA,-0.186
